Where a chain is given by its changes, count along the chain named. No constants are given. Whether binding was seen depends on the method and setting. Binding seen in cells or lysates may run through a third protein. Some binding calls cover weakened binding; strength is not graded here. For some assays here: Sequences can lack the tags named with a protein. One block for each binder: values may come before it.
Tests used:
[1] = molecular target: T1, Bem1-Cub-RUra3 (S. cerevisiae) (UniProt P29366); assay: split reporter; Split-Ub as a1, but Nub fusions expressed from their native promoters; scored after 4 d on 5-FOA medium
T1 sequence: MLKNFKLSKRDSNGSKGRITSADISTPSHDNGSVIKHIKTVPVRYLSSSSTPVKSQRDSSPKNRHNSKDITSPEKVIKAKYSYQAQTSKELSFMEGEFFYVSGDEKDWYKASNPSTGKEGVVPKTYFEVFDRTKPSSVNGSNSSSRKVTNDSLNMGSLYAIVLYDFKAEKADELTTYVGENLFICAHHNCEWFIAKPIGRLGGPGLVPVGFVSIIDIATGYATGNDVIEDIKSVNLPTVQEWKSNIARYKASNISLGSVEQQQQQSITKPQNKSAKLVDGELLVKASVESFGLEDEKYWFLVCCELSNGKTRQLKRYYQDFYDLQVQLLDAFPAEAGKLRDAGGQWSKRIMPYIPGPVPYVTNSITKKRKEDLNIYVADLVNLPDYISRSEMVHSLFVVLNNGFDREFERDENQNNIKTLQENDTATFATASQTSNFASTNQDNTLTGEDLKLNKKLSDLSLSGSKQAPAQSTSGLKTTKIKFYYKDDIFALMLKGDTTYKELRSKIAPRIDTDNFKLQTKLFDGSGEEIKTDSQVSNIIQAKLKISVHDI

[2] = molecular target: T2, Bem1-mCherry-Cub-RGFP (S. cerevisiae) (UniProt P29366); assay: split reporter; SPLIFF (split-ubiquitin with mCherry-Cub-RGFP, CCG): a-cells with the CCG fusion mated with α-cells with Nub-HA fusions; conversion of CCG to CC measured by time-lapse microscopy at the site of cell fusion (PCDI); a significant positive slope = interaction
T2 sequence: T1 sequence

[3] = molecular target: T2, Bem1-mCherry-Cub-RGFP (S. cerevisiae); assay: split reporter; SPLIFF as a9, measured at the bud neck from completion of acto-myosin ring contraction until abscission (PCDIII)
[4] = molecular target: T2, Bem1-mCherry-Cub-RGFP (S. cerevisiae); assay: split reporter; SPLIFF as a9, measured at the cell front during bud site assembly and bud growth (PCDII)
Boi1CCG (S. cerevisiae) [5] = molecular target: T3, Boi1CCG (S. cerevisiae) (UniProt P38041); assay: split reporter; SPLIFF (split-ubiquitin with mCherry-Cub-RGFP, CCG): a-cells with the CCG fusion mated with α-cells with Nub-HA fusions; conversion of CCG to CC measured by time-lapse microscopy at the site of cell fusion (PCDI); a significant positive slope = interaction
T3 sequence: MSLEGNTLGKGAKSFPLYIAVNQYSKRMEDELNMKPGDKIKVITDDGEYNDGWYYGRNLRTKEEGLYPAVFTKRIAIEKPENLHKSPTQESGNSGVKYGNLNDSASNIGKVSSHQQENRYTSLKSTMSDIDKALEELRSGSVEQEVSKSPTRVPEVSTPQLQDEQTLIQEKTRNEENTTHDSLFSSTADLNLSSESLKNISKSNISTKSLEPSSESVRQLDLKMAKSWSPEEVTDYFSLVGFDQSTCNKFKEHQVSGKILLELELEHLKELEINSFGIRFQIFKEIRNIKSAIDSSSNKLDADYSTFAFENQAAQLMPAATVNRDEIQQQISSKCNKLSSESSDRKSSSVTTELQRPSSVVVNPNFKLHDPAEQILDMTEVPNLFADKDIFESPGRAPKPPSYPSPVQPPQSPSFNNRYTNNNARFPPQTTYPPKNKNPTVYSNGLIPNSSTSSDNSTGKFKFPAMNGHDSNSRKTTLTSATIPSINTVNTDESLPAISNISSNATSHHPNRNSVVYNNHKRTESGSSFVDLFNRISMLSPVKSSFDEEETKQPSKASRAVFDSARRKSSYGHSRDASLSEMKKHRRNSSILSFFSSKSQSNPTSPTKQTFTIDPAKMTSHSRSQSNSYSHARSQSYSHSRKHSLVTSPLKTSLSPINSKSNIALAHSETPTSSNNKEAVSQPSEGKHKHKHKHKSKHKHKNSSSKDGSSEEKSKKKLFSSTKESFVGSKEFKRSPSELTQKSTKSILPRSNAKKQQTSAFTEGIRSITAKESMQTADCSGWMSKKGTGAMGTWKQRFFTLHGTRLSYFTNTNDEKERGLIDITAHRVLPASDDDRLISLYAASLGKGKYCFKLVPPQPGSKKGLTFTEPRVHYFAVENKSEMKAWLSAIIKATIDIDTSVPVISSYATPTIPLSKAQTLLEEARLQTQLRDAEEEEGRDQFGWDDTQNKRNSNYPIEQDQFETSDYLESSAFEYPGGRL

Boi1CCG (S. cerevisiae) [6] = molecular target: T3, Boi1CCG (S. cerevisiae); assay: split reporter; SPLIFF as a9, measured at the bud neck from completion of acto-myosin ring contraction until abscission (PCDIII)
Boi1CCG (S. cerevisiae) [7] = molecular target: T3, Boi1CCG (S. cerevisiae); assay: split reporter; SPLIFF as a9, measured at the cell front during bud site assembly and bud growth (PCDII)
[8] = molecular target: T4, Bem1WK-Cub-RUra3 (S. cerevisiae) (UniProt P29366); assay: split reporter; split-ubiquitin (Split-Ub): a-cells with a Cub-RUra3 (CRU) fusion mated with α-cells with Nub fusions (P_CUP1), diploids as quadruplets on SD medium with 1 mg/ml 5-FOA and copper; growth = interaction; detects direct and indirect interactions
T4 sequence: T1 sequence with W192K

Boi2CRU (S. cerevisiae) = molecular target: T5, Boi2CRU (S. cerevisiae) (UniProt P39969); assay: split reporter; split-ubiquitin (Split-Ub): CRU and Nub fusions co-expressed in yeast cells, spotted in 10-fold serial dilutions on medium with 1 mg/ml 5-FOA and copper, 30°C; growth = interaction
T5 sequence: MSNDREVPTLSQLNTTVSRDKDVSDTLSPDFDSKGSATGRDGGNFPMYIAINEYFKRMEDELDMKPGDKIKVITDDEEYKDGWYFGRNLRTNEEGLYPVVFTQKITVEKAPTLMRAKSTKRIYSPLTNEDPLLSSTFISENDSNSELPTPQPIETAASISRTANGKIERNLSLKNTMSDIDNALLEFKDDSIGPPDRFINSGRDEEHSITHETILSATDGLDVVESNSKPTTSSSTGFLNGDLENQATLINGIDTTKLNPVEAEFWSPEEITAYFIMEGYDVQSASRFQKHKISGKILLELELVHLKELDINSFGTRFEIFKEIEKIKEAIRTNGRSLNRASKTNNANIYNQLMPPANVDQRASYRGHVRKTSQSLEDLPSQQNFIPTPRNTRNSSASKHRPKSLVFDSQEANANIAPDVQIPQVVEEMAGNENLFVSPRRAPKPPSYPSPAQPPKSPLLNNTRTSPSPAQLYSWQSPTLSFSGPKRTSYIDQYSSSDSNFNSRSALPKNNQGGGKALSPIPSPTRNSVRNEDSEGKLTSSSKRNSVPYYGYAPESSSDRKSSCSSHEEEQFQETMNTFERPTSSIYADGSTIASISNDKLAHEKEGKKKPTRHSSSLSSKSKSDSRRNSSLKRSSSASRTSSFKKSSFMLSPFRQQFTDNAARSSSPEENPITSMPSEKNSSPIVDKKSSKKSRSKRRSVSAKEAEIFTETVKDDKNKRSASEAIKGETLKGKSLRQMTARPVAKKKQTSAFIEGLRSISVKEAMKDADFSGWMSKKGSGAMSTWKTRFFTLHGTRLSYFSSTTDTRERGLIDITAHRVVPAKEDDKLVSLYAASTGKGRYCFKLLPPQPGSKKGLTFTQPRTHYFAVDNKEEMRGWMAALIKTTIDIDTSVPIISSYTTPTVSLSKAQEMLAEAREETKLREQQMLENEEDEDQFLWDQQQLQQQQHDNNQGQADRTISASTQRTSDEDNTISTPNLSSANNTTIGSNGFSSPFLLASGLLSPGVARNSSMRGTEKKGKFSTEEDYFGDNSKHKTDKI

Boi1CRU (S. cerevisiae) = molecular target: T6, Boi1CRU (S. cerevisiae) (UniProt P38041); assay: as above
T6 sequence: T3 sequence

[9] = molecular target: T1, Bem1-Cub-RUra3 (S. cerevisiae); assay: split reporter; Split-Ub as a2, in strains with a deletion of BOI1 or BOI2, or boi2∆ boi1_(PxxP∆)

- binding [1]: binds
- binding [2]: binds
- binding [3]: binds
- binding [4]: binds
B1: Nub-Rsr1 (protein, UniProt P13856 1-272)
chain: MRDYKLVVLGAGGVGKSCLTVQFVQGVYLDTYDPTIEDSYRKTIEIDNKVFDLEILDTAGIAQFTAMRELYIKSGMGFLLVYSVTDRQSLEELMELREQVLRIKDSDRVPMVLIGNKADLINERVISVEEGIEVSSKWGRVPFYETSALLRSNVDEVFVDLVRQIIRNEMESVAVKDARNQSQQFSKIESPSTRLPSSAKQDTKQSNNKQSSKGLYNKSSQGQAKVKQSTPVNEKHKPSHAVPKSGSSNRTGISATSQQKKKKKNASTCTIL

- binding (Boi1CCG (S. cerevisiae) [6]): binds
- binding [8]: no binding
- binding (Boi2CRU (S. cerevisiae)): binds
- binding (Boi1CRU (S. cerevisiae)): binds
B2: Nub-Nba1 (protein, UniProt Q08229 1-501)
chain: MSEEREENGISRATLNTQRLSAMIDSLNNEKDDRLFPSPTTTRTMITEEKADQSDVFKPPSRLLRSPAGDVSLPPGDNRSSMISNYSGIIQEGVEVSYVVKNRQQTQERRTSKDSNSLYSLKEPVSKNELPSLPMLPSEATLTKHLSDNQSTKSNTNADEIVIKPVTNAKPVGRFNSNTSKKVEGRGSLKLLSSPLRQEKVMRSSIGSGNLASESGSSTYNTKFHQSIQEQLEEEEEGNVSDKLSIVSSVIPELYTTTNEAPKAINPIRSETNDYNPTIPPRSKDRPRSRLFIEEGDGEGDLLTEEILPTPVQPGGHYKNSSQISTVSEQKSESYYSAATSMPPEEETYLTRPLPSTPNEDSRVTSNLKRDDTLKAIHDRANHTSTSTNKQDDDMYEDIIEETPKKTKLKKDTKKKLNKKKSVKELRSFDIDTLNQLLSVTKGTLIGSEFAQLGMKIEEKRALERLVDSLSRLTADMVLDPDRYEEGLKRLDKATKALEGF
- binding (Boi1CCG (S. cerevisiae) [5]): no binding (condition: during PCDI (cell fusion))
- binding (Boi1CCG (S. cerevisiae) [7]): no binding (condition: during PCDII (bud growth))

- binding [9]: binds weakly
B3: Bem1-Cub-RUra3 (protein, UniProt P29366 1-551)
chain: T1 sequence
